Laboratory results from PubChem BioAssay AID686978 (National Center for Advancing Translational Sciences (NCATS), 2013).
Several values for one entry are separate records, joined by “and”; a condition that tells them apart may be missing. Equal entries are not always repeated. Screen size: about 420,000 compounds; about 64,000 (15%) were called active. Inconclusive means that the source gave no clear call. Such entries were picked first, then a sample of the others. The call rests on the fitted dose curve; in most records, active means well fitted inhibition curve with a large enough effect; inconclusive means small, poorly fitted or top-dose-only effect; inactive means flat fitted curve, though single readings scatter. No potency is given beside an inconclusive call; the fits are too rough.

test: qHTS for Inhibitors of human tyrosyl-DNA phosphodiesterase 1 (TDP1): qHTS in cells in absence of CPT; settings: DT40 Tdp1-/- hTDP1 cells, no CPT, ATP luminescence, 48 h; activity change, negative = growth inhibition: at 46.2 µM (top of the series) unless noted; further: nearly all actives have a fitted effect of over 55% in size
Method in brief: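 DT40 Tdp1-/-;hTDP1 cells, no CPT (DMSO vehicle only), 400 cells/well; compounds pin-transferred; ≥48 hr, 37 °C; CellTiter-Glo 30 min RT dark, luminescence read.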
On the % scale 0 is the no-effect control and ±100 the full control effect; potency means the concentration at half of the fitted maximal effect; tags describe the fitted curve by direction and shape.

| SMILES | Potency | activity change, negative = growth inhibition |
| --- | --- | --- |
| Cc1ccc2c(c1)CN(CCNC(=O)c1n[nH]c3c1CCCC3)CC(C)O2 (centres undefined) | inactive | – |
| COc1ccc2oc(C(=O)OCC(=O)Nc3ccc(N4CCOCC4)cc3)c(C)c2c1 | inconclusive [inhibitor, single point] | – |
| COC1OC2COC(c3ccccc3)OC2C(OC(=O)c2ccccc2)C1OC(=O)c1ccccc1 (centres undefined) | inconclusive [inhibitor, single point] | – |
| O=C1OC[C@H]2CCCN2C(=O)[C@@H](CC(=O)N(CCO)Cc2ccccc2)C/C=C\CC[C@H]1Cc1ccc(F)cc1 | active: 20.6 µM | – |
| CCOC(=O)c1ccc(S(=O)(=O)N2CCN(Cc3cc4c(cc3O)OCO4)CC2)cc1 | inactive | – |
| Cc1ccc(NC(=O)c2ccc(Cl)c(N3C(=O)C=CC3=O)c2)cc1 | active: 2.06 µM | – |
| CN1CCc2nc(SCC(=O)Nc3cccc(F)c3)c(C#N)c(-c3cccs3)c2C1 | inconclusive [inhibitor, single point] | – |
| COc1ccc(C(=O)c2ccc(OC)c(OC)c2)cc1OC | inconclusive [inhibitor, single point] | – |
| CCOc1ccccc1Nc1nnc(SCC(=O)N2CCCC2)s1 | inactive | – |
| CCCNC(=O)C(=O)c1cccn1-c1ccsc1C(=O)OC | inactive | – |
| O=[N+]([O-])c1c(C(Cl)Cl)nn(-c2ccccc2)c1N1CCOCC1 | inactive | – |
| COc1cccc(-c2csc(N3CCN(C(=O)C4CCCCC4)CC3)n2)c1 | inconclusive [inhibitor, partial curve] | – |
| COc1ccc(-c2n(Cc3ccccc3)c3ccccc3[n+]2Cc2ccccc2)cc1 | active: 0.259 µM | – |
| O=c1c(-c2ccc(F)cc2)[n+]([O-])c2ccccc2n1OCc1ccccn1 | inconclusive [inhibitor, single point] | – |
| O=C(Nc1ccc2oc(-c3ccc4ccccc4c3)nc2c1)c1cccc(Cl)c1Cl | active: 5.17 µM | – |
| N#Cc1nc(N2CCCCC2)nc(N2CCOCC2)n1 | active: 10 µM and active: 16.4 µM | – |
| CC(Sc1nnc(-c2ccccc2)c(-c2ccccc2)n1)C(=O)NCC1CCCO1 (centres undefined) | active: 23.1 µM | – |
| CSc1ccc(CCNC(=O)CN2C(=O)COc3ccc(S(=O)(=O)N4CCCC4)cc32)cc1 | inconclusive [inhibitor, partial curve, poor fit] | – |
| CC(=O)N1CCN(c2nc(-c3cccs3)nc3ccccc23)CC1 | inconclusive [inhibitor, partial curve] | – |
| CCOC(=O)C1=C(C)Nc2nc(SC)nn2C1c1ccc(C(=O)OC)cc1 (centres undefined) | inactive | – |
| CC1(C(=O)Nc2cccc(C#N)c2)CCN1C(=O)C/C=C/c1ccccc1 (centres undefined) | inconclusive [inhibitor, single point] | – |
| Cn1cccc1-c1nc2ccc(NC(=O)c3ccc([N+](=O)[O-])cc3)cc2[nH]1 | inconclusive [inhibitor, full curve] | – |
| COCCn1c(=O)c(-c2ccc(OC)cc2)nc2cnc(Oc3ccc(OC)cc3)nc21 | inactive | – |
| CCc1ccc(NS(=O)(=O)c2ccc3c(c2)oc(=O)n3C)cc1 | inactive | – |
| Cc1ccccc1NC(=O)c1cc2ccccc2o1 | inactive | – |

| SMILES | Potency | activity change, negative = growth inhibition |
| --- | --- | --- |
| NC(=NC(=O)c1ccccc1)N1CCN(C(c2ccccc2)c2ccccc2)CC1 | inconclusive [inhibitor, single point] | – |
| Cc1ccc2[nH]c(=O)c3cc(C(=O)NC(C)C)sc3c2c1 | inconclusive [inhibitor, single point] | – |
| Clc1ccc(-c2nnn3c2nc(N2CCCCC2)c2ccccc23)cc1 | inactive | – |
| CCOc1ccc(NC(=O)c2cnn3c2NC(c2ccccc2)=CC3c2cccc(OC)c2OC)cc1 (centres undefined) | inconclusive [inhibitor, single point] | – |
| OC(c1ccc(F)cc1)c1nc(-c2ccoc2)cs1 (centres undefined) | inactive | – |
| CCO/C(C)=N/Oc1cnc2ccccc2c1 | inactive | – |
| FC(F)(F)c1ccccc1-c1ccc2ncnc(NC3CC3)c2c1 | active: 20.6 µM | – |
| COc1ccc(C2CC(=O)N(Cc3cccc(C)c3)c3c2c(C)nn3-c2nc(C)cc(C)n2)c(OC)c1 (centres undefined) | inconclusive [inhibitor, single point] | – |
| Cc1cc(NS(=O)(=O)c2ccc(NC(=S)NC(=O)c3ccc(Br)cc3)cc2)no1 | inactive | – |
| CCOC(=O)c1cnc2c(Cl)c(Cl)ccc2c1Nc1ccc(N(C)C)cc1 | – | inconclusive: -31.2% [inhibitor] |
| Cc1ccccc1-n1c(=O)c2ccccc2n(Cc2ccc(F)cc2)c1=O | inconclusive [inhibitor, single point] | – |
| COc1ccc(-c2csc(NC(=O)CN3C(=O)NC4(CCCC4)C3=O)n2)cc1OC | inactive | – |
| O=C(C1CN(C(=O)c2cc3ccccc3o2)c2ccccc2O1)N1CCCCC1 (centres undefined) | inconclusive [inhibitor, single point] | – |
| C#Cc1ccc2c(c1)COc1c3ccccc3nn1-2 | inconclusive [inhibitor, single point] | – |
| Cc1ccc(-n2c(SCCN)nnc2-c2cccc(C)c2)cc1 | inconclusive [inhibitor, single point] | – |
| O=C(NCCS(=O)(=O)N1CCN(Cc2ccccc2)CC1)c1ccccc1 | inconclusive [inhibitor, single point] | – |
| CN(C#N)c1nc(N2CCOCC2)nc(N2CCOCC2)n1 | inconclusive [inhibitor, single point] | – |
| CCOC(=O)c1c(-c2ccc(C)o2)csc1NC(=S)NC(=O)c1ccccc1Br | inconclusive [inhibitor, single point] | – |
| Cc1cccc(N2CC(C(=O)Nc3ccc(N4CCOCC4)cc3)CC2=O)c1C (centres undefined) | inactive | – |
| C#CCN(C(=O)CC1C(=O)NCCN1C/C=C/c1ccccc1)C1CCCCC1 (centres undefined) | inactive | – |
| CC(C)NC(=S)N=Nc1c(O)[nH]c2ccc([N+](=O)[O-])cc12 | inconclusive [inhibitor, single point] | – |
| COc1ccccc1CN(C)C(=O)c1cc(-c2cc(OC)c(OC)c(OC)c2)nc2ccccc12 | active: 10.3 µM | – |
| COc1ccc(CNC(=O)Cc2nn(C)c(=O)c3ccccc23)cc1 | active: 7.31 µM | – |
| Cc1cc(C(=O)OCC(=O)N2CC(=O)Nc3ccccc32)c(C)n1-c1ccccc1 | inconclusive [inhibitor, partial curve, poor fit] | – |
| COc1cc(C=NNC(=S)Nc2ccc(S(=O)(=O)N3CCCCC3)cc2)cc(OC)c1OC | active: 8.2 µM | – |

| SMILES | Potency | activity change, negative = growth inhibition |
| --- | --- | --- |
| COC(=O)c1ccc(-n2nnnc2SCC(=O)Nc2ccccc2C(=O)OC)cc1 | inconclusive [inhibitor, single point] | – |
| Cc1ccc(CNC(=O)c2ccc(C)s2)cc1 | inconclusive [inhibitor, single point] | – |
| O=[N+]([O-])c1ccn(-c2nc(-c3cccs3)cc(C(F)(F)F)n2)n1 | inactive | – |
| O=C(CSc1nc2cc(Cl)ccc2s1)N1CCCc2ccccc21 | active: 14.1 µM | – |
| Cc1cc(Cl)ccc1OCC(=O)N/N=C/c1ccncc1 | inconclusive [inhibitor, single point] | – |
| O=C1C=C(c2ccc(O)cc2)C[C@@H](c2ccc(Cl)cc2)C1 | inconclusive [inhibitor, single point] | – |
| COc1ccc(-n2c(=O)c3c4c(sc3n(Cc3c(F)cccc3Cl)c2=O)CN(C(C)=O)CC4)cc1OC | inconclusive [inhibitor, single point] | – |
| COc1cccc(N=CNc2cccc(OC)c2)c1 | inactive | – |
| CC1CCCN(S(=O)(=O)c2ccc3c(c2)C(C)(C)C(=O)N3C)C1 (centres undefined) | inactive | – |
| COc1cccc(CNC(=O)c2ccc(C3SCCS3)cc2)c1 | inconclusive [inhibitor, partial curve] | – |
| Cc1cccc(-c2nnc(-c3ccc(N)cc3)o2)c1 | inactive | – |
| CCOC(=O)c1ccccc1NC(=O)CN(c1cc(C(F)(F)F)ccc1Cl)S(C)(=O)=O | inconclusive [inhibitor, single point] | – |
| COc1ccc([C@H]2CC(=O)C=C(/C=C/c3ccccc3)C2)cc1 | inactive | – |
| COc1ccccc1-c1oc2ccccc2c(=O)c1OC | inconclusive [inhibitor, full curve, poor fit] | – |
| COc1ccc(OC)c(N(CC(N)=O)S(=O)(=O)c2ccc(OC)c(OC)c2)c1 | inactive | – |
| Cc1ccc(-c2noc(CN(C(=O)c3ccc(C(C)(C)C)cc3)C(C)C)n2)cc1 | inconclusive [inhibitor, single point] | – |
| N=C1C(c2nc3ccccc3[nH]2)=C(O)CN1c1ccccc1 | active: 23.1 µM | – |
| COc1cccc(N2CCN(S(=O)(=O)c3ccc(-c4cc(C(F)(F)F)on4)s3)CC2)c1 | inactive | – |
| Cc1ccc(OC(=S)Nc2ccccc2)c(C)c1 | active: 16.4 µM | – |
| Cc1ccc(CCNC(=O)CCS(=O)(=O)c2ccc3c(c2)oc(=O)n3C)cc1 | inactive | – |
| O=C(Cn1ccc2cc(S(=O)(=O)N3CCCCCC3)ccc21)NCCc1ccccc1Cl | inconclusive [inhibitor, single point] | – |
| COc1ccc(C(=O)O/N=C(/c2ccccc2)c2ccncc2)cc1 | inconclusive [inhibitor, single point] | – |
| CC1(C)CN(c2ccc(Br)cc2)C(=O)[C@H]1CC(=O)Nc1ccccc1 | inconclusive [inhibitor, single point] | – |
| COCCN(C(=O)COC(=O)/C=C/c1ccc(C)o1)c1c(N)n(Cc2ccccc2)c(=O)[nH]c1=O | inactive | – |
